{
  "source": "paper PMC4336329",
  "about": "(PLoS ONE, 2015)",
  "note": "Screen size: about 310,000 compounds; about 14,000 (4.5%) showed an effect of 50% or more. The effect is printed as a negative number. Some of the results follow.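 Also: peak tail current of the secondary pulse compared with the same well before compound.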",
  "data": [
    {"target": "human ether-à-go-go-related gene (hERG) potassium channel (human, UniProt Q12809)", "sequence (Q12809 whole entry, looked up)": "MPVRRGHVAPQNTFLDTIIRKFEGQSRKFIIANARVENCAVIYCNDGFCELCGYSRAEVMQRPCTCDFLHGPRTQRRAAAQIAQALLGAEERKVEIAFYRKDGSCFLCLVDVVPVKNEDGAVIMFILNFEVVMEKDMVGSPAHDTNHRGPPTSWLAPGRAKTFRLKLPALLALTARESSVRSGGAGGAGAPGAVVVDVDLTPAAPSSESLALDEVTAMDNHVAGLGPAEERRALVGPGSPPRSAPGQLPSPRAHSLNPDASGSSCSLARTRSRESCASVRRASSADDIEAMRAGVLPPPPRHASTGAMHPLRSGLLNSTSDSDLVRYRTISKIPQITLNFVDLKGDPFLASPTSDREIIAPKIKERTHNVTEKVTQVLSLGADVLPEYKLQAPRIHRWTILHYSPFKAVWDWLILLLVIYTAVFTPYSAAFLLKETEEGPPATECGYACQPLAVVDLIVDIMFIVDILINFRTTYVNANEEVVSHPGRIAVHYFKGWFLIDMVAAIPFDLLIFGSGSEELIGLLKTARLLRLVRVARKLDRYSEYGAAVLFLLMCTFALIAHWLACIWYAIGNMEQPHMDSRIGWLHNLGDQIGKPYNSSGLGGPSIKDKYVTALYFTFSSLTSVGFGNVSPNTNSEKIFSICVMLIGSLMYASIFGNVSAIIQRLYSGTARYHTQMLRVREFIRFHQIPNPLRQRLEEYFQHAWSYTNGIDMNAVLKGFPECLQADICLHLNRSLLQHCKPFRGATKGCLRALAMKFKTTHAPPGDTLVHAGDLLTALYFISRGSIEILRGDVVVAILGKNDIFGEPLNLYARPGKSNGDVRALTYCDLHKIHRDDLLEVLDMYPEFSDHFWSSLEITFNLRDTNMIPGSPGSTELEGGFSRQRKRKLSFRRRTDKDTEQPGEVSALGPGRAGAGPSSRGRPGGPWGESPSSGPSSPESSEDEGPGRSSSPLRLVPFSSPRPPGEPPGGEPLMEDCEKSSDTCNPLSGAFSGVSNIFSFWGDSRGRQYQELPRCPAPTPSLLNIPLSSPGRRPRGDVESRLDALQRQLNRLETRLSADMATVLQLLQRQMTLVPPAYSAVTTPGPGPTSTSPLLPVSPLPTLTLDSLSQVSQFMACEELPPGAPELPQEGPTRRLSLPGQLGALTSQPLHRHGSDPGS", "experiment": "primary screen, population patch clamp on CHO cells stably expressing hERG", "units": {"hERG current change (%, negative = inhibition) at 10uM": "%"}, "values": [
      {"smiles": "COc1ccc(CCN2C(=O)c3[nH]nc(-c4ccccc4O)c3C2c2ccc(C)cc2)cc1OC", "note": "(stereo not shown)", "hERG current change (%, negative = inhibition) at 10uM": -1.7},
      {"smiles": "CC12CCC(C(=O)O)(C/C1=N\\O)C2(C)C", "note": "(stereo not shown)", "hERG current change (%, negative = inhibition) at 10uM": -1.55},
      {"smiles": "COc1ccc(C)cc1NC(=O)C1CCN(S(=O)(=O)c2cccs2)CC1", "hERG current change (%, negative = inhibition) at 10uM": 17.3},
      {"smiles": "Cc1ccccc1-c1nc(CN2CCC(C(=O)NC3CCN(Cc4ccccc4)CC3)CC2)c(C)o1", "hERG current change (%, negative = inhibition) at 10uM": -43},
      {"smiles": "Cn1c(OCc2cccnc2)nc2c1c(=O)n(Cc1ccc(Br)cc1)c(=O)n2C", "hERG current change (%, negative = inhibition) at 10uM": -57.3},
      {"smiles": "Cc1cnc(C(=O)OCC(=O)NC2CCCCCC2)cn1", "hERG current change (%, negative = inhibition) at 10uM": 26.8},
      {"smiles": "CCc1n[nH]c(=S)n1/N=C/c1ccc(-c2ccc(Br)cc2)o1", "hERG current change (%, negative = inhibition) at 10uM": 0.892},
      {"smiles": "O=C1NC(=O)/C(=C\\c2ccc(Cl)nc2)S1", "hERG current change (%, negative = inhibition) at 10uM": 16.3},
      {"smiles": "Cc1ccc([N+](=O)[O-])cc1NC(=O)C1CCN(S(C)(=O)=O)CC1", "hERG current change (%, negative = inhibition) at 10uM": 28.3},
      {"smiles": "CCCCN(C)C(=O)c1cc2cc3ccc(OC)cc3nc2o1", "hERG current change (%, negative = inhibition) at 10uM": -23},
      {"smiles": "COc1ccc(Cl)cc1C(=O)NNC(=O)COC(=O)CC(NC(C)=O)c1ccccc1", "note": "(stereo not shown)", "hERG current change (%, negative = inhibition) at 10uM": 6.32},
      {"smiles": "CCCOc1ccc(Cl)cc1/C=C1/C(=O)ON=C1C", "hERG current change (%, negative = inhibition) at 10uM": 3.34},
      {"smiles": "CN1C(=O)N(C)C2(c3ccccc3)Nn3c(s/c(=C/c4ccccc4F)c3=O)=NC12c1ccccc1", "note": "(stereo not shown)", "hERG current change (%, negative = inhibition) at 10uM": 6.11},
      {"smiles": "Cc1c(C(=O)NCCSCc2ccc(Cl)cc2Cl)cccc1[N+](=O)[O-]", "hERG current change (%, negative = inhibition) at 10uM": 17.5},
      {"smiles": "Cc1ccsc1C(=O)NNC(=O)CCN1CCN(c2ccccc2)CC1", "hERG current change (%, negative = inhibition) at 10uM": -12.8},
      {"smiles": "CCC1(CC)NC(=O)NC1=O", "hERG current change (%, negative = inhibition) at 10uM": 15.4},
      {"smiles": "Cl.Fc1ccc(-c2ccc(CNCc3ccccn3)o2)cc1", "hERG current change (%, negative = inhibition) at 10uM": -25.4},
      {"smiles": "O=C(NC1CCSc2ccccc21)c1ccccc1F", "note": "(stereo not shown)", "hERG current change (%, negative = inhibition) at 10uM": 6.76},
      {"smiles": "Cc1ccc(S(=O)(=O)NCc2n[nH]c(=S)n2C)cc1", "hERG current change (%, negative = inhibition) at 10uM": 21},
      {"smiles": "COc1ccccc1CNC(=O)CCCc1cn(C)c2ccccc12", "hERG current change (%, negative = inhibition) at 10uM": -16.8},
      {"smiles": "Cc1ccc(SCc2[nH]nc3c2C2(C(=O)N(C)c4ccccc42)C(C#N)=C(N)O3)cc1", "note": "(stereo not shown)", "hERG current change (%, negative = inhibition) at 10uM": -3.04},
      {"smiles": "C/C(=N\\NC(=O)c1nnn(-c2nonc2N)c1CN(C)c1ccccc1)c1cccnc1", "hERG current change (%, negative = inhibition) at 10uM": 19.2},
      {"smiles": "CCCCCCn1c(O)c(C=NCCN2CCOCC2)c(=O)[nH]c1=O", "hERG current change (%, negative = inhibition) at 10uM": -7.56},
      {"smiles": "Cc1cnc(C(=O)OC(C)C(=O)Nc2ccc(Cl)cn2)cn1", "note": "(stereo not shown)", "hERG current change (%, negative = inhibition) at 10uM": 4.65},
      {"smiles": "COc1ccc(C)cc1NC(=O)C1CCN(S(C)(=O)=O)CC1", "hERG current change (%, negative = inhibition) at 10uM": 8.31}
    ]}
  ]
}
